PubChem BioAssay AID924 (National Center for Advancing Translational Sciences (NCATS), 2007)
Among all 130,000 compounds or so, about 1,200 (0.92%) were called active. Inconclusive means that the source gave no clear call. Such entries were picked first, then a sample of the others. The call rests on the fitted dose curve; in most records, active means well fitted cell-killing curve with a large enough effect; inconclusive means small, poorly fitted or top-dose-only effect; inactive means no such curve, though single readings can be large or run the other way. Potencies beside an inconclusive call are fits to weak or partial responses and may not hold up.

Assay: qHTS Screen for Compounds that Selectively Target Cancer Cells with p53 Mutations: Cytotoxicity of p53ts Cells at the Permissive Temperature; further: nearly all actives have a fitted effect of over 55% in size;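 on activity change, negative = cytotoxicity: 0% = DMSO and -100% = full killing by reference compound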
Conditions: H1299-p53A138V at 32C, ATP luminescence viability, 24 h; activity change, negative = cytotoxicity: at 46.1 µM (top of the series)
From the text: NIH Chemical Genomics Center [NCGC] NIH Molecular Libraries Screening Centers Network [MLSCN] MLSCN Grant: 1 X01 MH079844-01 Assay Submitter (PI): Dr. SUN, YI, University of Michigan NCGC Assay Overview: Synthetic Lethal Screen for Compounds to Kill Cancer Cells with p53 Mutation. Tumor suppressor gene p53 serves as a major cellular barrier against tumorigenesis. […] The goal of this screening is to identify small molecule probes that selectively kill cancer cells with mutations in p53. This screening was carried out using two lines of H1299 lung cancer cells. The H1299-p53 A138V line express a temperature sensitive p53 mutant (p53ts) in which the mutant p53 protein (A138V) is in the mutant confirmation when grown at 39C (the nonpermissive temperature) and in the wild type conformation when grown at 32C (the permissive temperature). A H1299-neo line (p53 null) grown at both 39C and 32C were used as counter-screens to filter out false positive associated with temperature shifting. The small molecular compounds that selectively target mutant p53-containing cancer cells were selected as candidate probes for further study. A cytotoxicity assay based on the measurement of ATP contents in cells was used in this screen. Concentration-responses of all the compounds in the library collection were determined in qHTS using the cell lines and temperature conditions as above.
NCGC Assay Protocol Summary: Both the H1299-p53A138V and H1299-neo cell lines were provided by Dr.Yi Sun, a PI at the University Michigan. The cells were maintained and cultured at 37C. The resuspended frozen cells were used to plate the cells in the 1536-well assay plates at a density of 600 cells per well in 5 ul medium. The assay plates with the cells were incubated at 37C for 16 to 30 hours before the experiments. The library compounds in DMSO solution were added to the cells in assay plates and incubated 24 hours at 39C (for mutant p53 conformation) or 32C (for normal p53 conformation as control). An ATP_lite assay kit (PerkinElmer) was used to determine the cell viability. Tomaxifen (100uM) was used as the positive control for cell killing. Data were normalized to the controls for basal activity (DMSO only) and 100% killing (100uM tamoxifen). AC50 values were determined from concentration-response data modeled with the standard Hill equation. P53 assay protocol: 1. Reagent; 5 uL H1299-p53A138V or H1299-neo cell cells/well 2. Time; overnight; 37C incubation 3. Compounds; 23 nL; 5.9 nM to 46 uM 4. Controls; 23 nL; Tamoxifen 100 uM 5. Time; 24 hr; 37C incubation 6. Reagent; 3 uL; ATP_Lite reagent 7. Time; 20 min; Room Temperature 8. Detection; Luminescence; Viewlux plate reader Keywords: p53, synthetic lethal, cancer, cell viability, cytotoxicity, H1299 cell line, luminescence, MLSMR, MLSCN, NIH Roadmap, qHTS, NCGC
Potency means the concentration at half of the fitted maximal effect; tags describe the fitted curve by direction and shape.

SMILES	Potency	activity change, negative = cytotoxicity
CC(C)COc1ccc(C(=O)Nc2onc3c2CCCC3)cc1	inconclusive: 7.94 µM [cytotoxic, partial curve]	
c1ccc(N2CCN(c3ncnc4c3oc3ccccc34)CC2)cc1	inconclusive: 31.6 µM [cytotoxic, single point]	
O=C(Cn1ncc(Cl)c(Cl)c1=O)c1ccc(Cl)cc1	inconclusive: 31.6 µM [cytotoxic, single point]	
c1c2c(cc3sc(N4CCOCC4)nc13)OCCO2	active: 3.16 µM	
COc1ccc2[nH]cc(CCNc3cc(-c4ccc5c(c4)OCO5)ncn3)c2c1	inconclusive: 31.6 µM [cytotoxic, single point]	
Cc1cccc(-c2nc(S(=O)(=O)c3ccccc3)c(N3CCN(c4ccccc4)CC3)o2)c1		inactive: 6.59%
Cc1ccc(C(=O)Nc2cccc(C(=O)NCc3ccco3)c2)cc1	inconclusive: 12.6 µM [cytotoxic, single point]	
NCCNS(=O)(=O)c1cccc2c(Cl)cccc12	inconclusive: 12.6 µM [cytotoxic, single point]	
Cc1nc(NC(=O)c2ccccc2)sc1-c1csc(N)n1		inactive: -24.6%
CCOC(=O)N1CCN(Cc2cc(=O)oc3ccc4ccccc4c23)CC1		inactive: 6.48%
CC(=O)c1ccc(NC(=O)CSc2nnc(NC(=O)NC3CCCCC3)s2)cc1	active: 7.08 µM	
O=C(COc1ccccc1Cl)Nc1ccc2c(c1)OCCO2	inconclusive: 20 µM [cytotoxic, single point]	
CC[C@]1(O)C[C@H]2CN(CCc3c([nH]c4ccccc34)[C@](C(=O)OC)(c3cc4c(cc3OC)N(C=O)[C@H]3[C@@](O)(C(=O)OC)[C@H](OC(C)=O)[C@@]5(CC)C=CCN6CC[C@]43[C@H]65)C2)C1	inconclusive: 12.6 µM [cytotoxic, partial curve]	
CCCCOC(=O)Nc1ccc(C(C)C)cc1		inactive: -10.1%
Cc1nc(Oc2ccccc2C)c2oc3ccccc3c2n1		inactive: 3.25%
COc1cc(Nc2cc(C)nc3nc(C)nn23)cc(OC)c1OC		inactive: 5.34%
O=C(Nc1ccc(N2CCCCC2)cc1)c1cccnc1	inconclusive: 10 µM [cytotoxic, partial curve]	
O=C(CSc1nc(-c2ccccc2)[nH]c1-c1ccccc1)Nc1ccc2c(c1)OCO2	inconclusive: 11.2 µM [cytotoxic, partial curve, poor fit]	

SMILES	Potency	activity change, negative = cytotoxicity
Cc1cccc(Nc2nc(-c3ccccc3)c3cc(C)ccc3n2)c1		inactive: 2.62%
CCOc1ccc(Nc2nc(Cc3nnc(SCC(N)=O)o3)cs2)cc1	inconclusive: 12.6 µM [cytotoxic, single point]	
CC(C)OCCCn1c(SCC(=O)Nc2ccc(F)cc2)nc2c(sc3ccccc32)c1=O		inactive: 4.89%
Fc1ccc(Nc2nc3nonc3nc2Nc2cccc(C(F)(F)F)c2)cc1	inconclusive: 12.6 µM [cytotoxic, partial curve]	
CC1CCN(C(=O)CSc2nc(-c3ccc(C(C)C)cc3)no2)CC1	inconclusive: 15.8 µM [cytotoxic, partial curve]	
COc1ccc2nc3oc(C(=O)N4CCCCC4)cc3cc2c1	inconclusive: 14.1 µM [cytotoxic, partial curve, poor fit]	
Cc1ccc(C)c(NC(=O)CCc2nc(-c3ccc(C(C)(C)C)cc3)no2)c1	inconclusive: 20 µM [cytotoxic, partial curve, poor fit]	
CCCCCCCCCCCC1=C(O)C(=O)C=C(O)C1=O	active: 12.6 µM	
COc1cccc(-c2cc(C(F)(F)F)n3nc(N)nc3n2)c1		inactive: -5.08%
COc1ccc(NC(=O)Cn2nnc(-c3ccccc3NC(=O)c3cccs3)n2)cc1	inconclusive: 10 µM [cytotoxic, partial curve]	
CCOc1ccc(-c2cc3c(=O)n(CC(=O)NCc4ccc(OC)cc4)ccn3n2)cc1	inconclusive: 1 µM [cytotoxic, full curve, poor fit]	
Cc1ccc(CNC(=O)c2cc3sc(Cl)cc3n2C)cc1	inconclusive: 5.01 µM [cytotoxic, full curve, poor fit]	
CC(=O)c1c(C)[nH]c(C(=O)N2c3ccccc3CC2C)c1C (stereo unspecified)		inactive: 3.62%
COc1ccc(NC(=O)c2cnc3cc(C)ccn3c2=O)c(OC)c1		inactive: 11.2%
COc1ccc(CCn2c(-c3ccco3)nc3ccccc3c2=O)cc1OC	inconclusive: 20 µM [cytotoxic, single point]	
CN(C)c1cccc(-c2nnc(SCCCC#N)o2)c1	inconclusive: 10 µM [cytotoxic, partial curve]	
CCCCOc1ccc(-c2c(C#N)c(N)nc(SCC(N)=O)c2C#N)cc1	inconclusive: 20 µM [cytotoxic, partial curve]	
Cc1cccc(CNc2ncnc3ccc(-c4ccccc4C#N)cc23)c1	inconclusive: 31.6 µM [cytotoxic, single point]	
